These results are taken from the supplement of paper PMC10670038.

Where a name gives a salt, the structure may show the parent alone. ± gives the standard deviation of the averaged measurements. The full ranking holds about 2,000 compounds; the median of “relative cell viability vs DMSO, compound + 0.2 uM CuET” is about 1, and the lowest 2% start at about 0.25. Some of the results follow.

The test relates to TE10. Kind of test: relative cell viability vs DMSO, compound + 0.2 uM CuET (fraction); TE10 is an esophageal squamous carcinoma line; higher = less cytotoxic. The conditions noted are these: 2 µM; co-treatment: CuET (bis(diethyldithiocarbamate)copper) 0.2 uM; 48 h. The protocol: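 TE10 ESCC cells (1,000/well, 384-well plates) were treated with Selleck bioactive library compounds at 2 uM combined with 0.2 uM CuET (copper diethyldithiocarbamate) for 48 h. Viability was read by CellTiter-Glo and expressed relative to DMSO wells. Two technical replicates (A, B).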
With `O=C(O)CCCc1ccccc1` [Sodium Phenylbutyrate], the relative cell viability is 1.104 ± 0.0058.

Turning to `CCOc1nc2cccc(C(=O)O)c2n1Cc1ccc(-c2ccccc2-c2noc(=O)[nH]2)cc1` [Azilsartan], the relative cell viability amounted to 1.17 ± 0.24. For `COCCOC(=O)C1=C(C)NC(C)=C(C(=O)OC/C=C/c2ccccc2)C1c1cccc([N+](=O)[O-])c1` (configuration not stated) [Cilnidipine], the relative cell viability stood at 1.08 ± 0.031.

For the compound `Cc1cc([C@@H](C)Nc2ccccc2C(=O)O)c2nc(N3CCOCC3)cc(=O)n2c1`, the relative cell viability turned out to be 0.873 ± 0.074.

`Cc1cc(C)cc(C(=O)NOCCCCCC(=O)NO)c1`: the relative cell viability turned out to be 0.23 ± 0.02. On to `O=c1c(-c2ccc(O)cc2)coc2c([C@@H]3O[C@H](CO)[C@@H](O)[C@H](O)[C@H]3O)c(O)ccc12` [Puerarin], for which the relative cell viability worked out at 1.158 ± 0.004.

Regarding `CNC(=O)c1cc(COc2nnc(Nc3ccc(Cl)cc3)c3ccoc23)ccn1` [Telatinib], the relative cell viability came to 0.811 ± 0.0084. Take `CCCc1nc(C)c2c(=O)nc(-c3cc(S(=O)(=O)N4CCN(CC)CC4)ccc3OCC)[nH]n12` [Vardenafil HCl Trihydrate]: the relative cell viability worked out at 1.1 ± 0.062. Turning to `O=C(O)/C=C/c1ccc(Cn2ccnc2)cc1` [Ozagrel], the relative cell viability was found to be 1.11 ± 0.059. As to `O=C(O)/C=C/c1ccc(Cn2ccnc2)cc1` [Ozagrel HCl], the relative cell viability is 1.08 ± 0.076. `COc1cc2nccc(Oc3ccc(NC(=O)C4(C(=O)Nc5ccc(F)cc5)CC4)cc3)c2cc1OC` [Cabozantinib malate (XL184)]: the relative cell viability worked out at 1.09 ± 0.019. Next, `COc1cc2nccc(Oc3ccc(NC(=O)C4(C(=O)Nc5ccc(F)cc5)CC4)cc3)c2cc1OC`: 0.916 ± 0.28; `CNC(=O)[C@H](Cc1c[nH]c2ccccc12)NC(=O)[C@@H](CC(=O)NO)CC(C)C` [Ilomastat (GM6001, Galardin)]: 1.09 ± 0.16; `C[C@H]1C[C@H]2[C@@H]3CCC4=CC(=O)C=C[C@]4(C)[C@@]3(F)[C@@H](O)C[C@]2(C)[C@@]1(O)C(=O)CO` [Betamethasone]: 1.331 ± 0.011.

Regarding `Oc1ccc(OCc2ccccc2)cc1` [Monobenzone], the relative cell viability was 0.91 ± 0.0097.

For the compound `Cc1cc(/N=N/c2ccc(S(=O)(=O)Nc3ccccn3)cc2)c(N)cc1O`, the relative cell viability was 0.883 ± 0.028. In the case of `COc1cc(O)c(CC=C(C)C)c(O)c1C(=O)/C=C/c1ccc(O)cc1` [Xanthohumol], the relative cell viability came to 0.786 ± 0.024.

Turning to `O=C(NCCO[N+](=O)[O-])c1cccnc1` [Nicorandil], the relative cell viability worked out at 1.054 ± 0.0074. With `Cc1ccc(Cl)c(Nc2ccccc2C(=O)O)c1Cl` [Meclofenamate Sodium], the relative cell viability was found to be 0.9947 ± 0.0029. Turning to `CN(C)CCOc1ccc(/C(=C(/CCCl)c2ccccc2)c2ccccc2)cc1` [Toremifene Citrate], the relative cell viability stood at 0.893 ± 0.087. Turning to `CCN1CCN(C(=O)N[C@@H](C(=O)N[C@@H]2C(=O)N3C(C(=O)O)=C(CSc4nnnn4C)CS[C@H]23)c2ccc(O)cc2)C(=O)C1=O` [Cefoperazone], the relative cell viability amounted to 1.02 ± 0.065.

Regarding `O=C(c1cn(Cc2cncn2Cc2ccc(Br)cc2)cc1-c1cccc2ccccc12)N1CCOCC1`, the relative cell viability was found to be 0.857 ± 0.025. Next, `CC(C)(Cc1ccc2ccccc2c1)NC[C@@H](O)COc1cccc(Cl)c1C#N`: 0.693 ± 0.097; `O=C1Nc2ccc(I)cc2C1=Cc1cc(Br)c(O)c(Br)c1`: 1.08 ± 0.22; `N#Cc1ccc(-c2c(-c3ncn[nH]3)sc(N3CCOCC3)c2C#N)c(F)c1`: 0.713 ± 0.082. Consider `Cn1c(=O)cc(N2CCC[C@@H](N)C2)n(Cc2cc(F)ccc2C#N)c1=O` [Trelagliptin], for which the relative cell viability was determined as 1.17 ± 0.22.

On to `CC(C)(C)c1[nH]cnc1/C=c1\[nH]c(=O)/c(=C/c2ccccc2)[nH]c1=O` [Plinabulin (NPI-2358)], for which the relative cell viability was 0.753 ± 0.058. With `Cc1c(-c2ccnn2C)cc(C(=O)NCc2ccc(S(C)(=O)=O)cn2)c(=O)n1-c1cccc(C(F)(F)F)c1` [Alvelestat (AZD9668)], the relative cell viability worked out at 0.993 ± 0.044. `CCCNC(C)C(=O)Nc1ccccc1C` (configuration not stated) [Prilocaine]: the relative cell viability was 1.01 ± 0.051. `Nc1ncn([C@@H]2O[C@H](CO)[C@@H](O)[C@H]2O)c(=O)n1` [Azacitidine]: the relative cell viability turned out to be 1.11 ± 0.15.

`CC(COc1ccccc1)N(CCCl)Cc1ccccc1` (configuration not stated) [Phenoxybenzamine HCl]: the relative cell viability amounted to 1.07 ± 0.07. `CC(=O)Nc1cccc2c1c(Sc1ccc(Cl)cc1)c(C)n2CC(=O)O`: the relative cell viability came out at 1.18 ± 0.12.

For the compound `O=C(Nc1ccc(OC(F)(F)F)cc1)c1sccc1NCc1ccnc2ccccc12`, the relative cell viability came out at 1.23 ± 0.045.

Take `COc1cc(/C=C/C(=O)N2CCN(CC(=O)N3CCCC3)CC2)cc(OC)c1OC` [Cinepazide maleate]: the relative cell viability came out at 1.22 ± 0.016. For `C/C=C1/[C@H](O[C@@H]2O[C@H](CO)[C@@H](O)[C@H](O)[C@H]2O)OC=C(C(=O)OC)[C@H]1CC(=O)OCCc1ccc(O)c(O)c1` [Oleuropein], the relative cell viability is 1.05 ± 0.018. To `Cc1cc(=O)oc2cc(O)ccc12` [4-Methylumbelliferone (4-MU)] belongs 1.23 ± 0.043; to `COc1cccc(-c2ccc(NC(=O)C3=C(C(=O)O)CCC3)c(F)c2)c1` [Vidofludimus], 1.08 ± 0.041; to `Clc1cccc(-c2nnnn2Cc2cccnc2)c1Cl`, 1.17 ± 0.056. As for `COc1ccc(C(=O)CC2(O)C(=O)Nc3c(Cl)ccc(Cl)c32)cc1` (configuration not stated), the relative cell viability worked out at 0.97 ± 0.18. As to `O=C(NC1CCN(CCCCC2(C(=O)NCC(F)(F)F)c3ccccc3-c3ccccc32)CC1)c1ccccc1-c1ccc(C(F)(F)F)cc1` [Lomitapide Mesylate], the relative cell viability turned out to be 0.684 ± 0.065. For the compound `O=C(NC1CCN(CCCCC2(C(=O)NCC(F)(F)F)c3ccccc3-c3ccccc32)CC1)c1ccccc1-c1ccc(C(F)(F)F)cc1` [Lomitapide], the relative cell viability was determined as 1.01 ± 0.13. To `CCCN[C@H]1CCc2nc(N)sc2C1` [Pramipexole] belongs 1.1 ± 0.087.

Take `CCCN[C@H]1CCc2nc(N)sc2C1` [Pramipexole dihydrochloride monohydrate]: the relative cell viability was 0.998 ± 0.074. With `CC(C)(C)Cn1c(N)nc2ccc(-c3[nH]c(C(C)(C)C)nc3-c3ccc(F)cc3)nc21`, the relative cell viability worked out at 1.34 ± 0.083.

Turning to `COC1=C(OC)C(=O)C(CCCCCCCCCCO)=C(C)C1=O` [Idebenone], the relative cell viability was 0.993 ± 0.16. `Cc1nc(NC(=O)N2CCC[C@H]2C(N)=O)sc1-c1csc(C(C)(C)C)n1`: the relative cell viability is 0.73 ± 0.077. As to `O=C(Nc1c[nH]nc1-c1nc2ccc(CN3CCOCC3)cc2[nH]1)NC1CC1`, the relative cell viability turned out to be 0.913 ± 0.097. Take `CCOC(=O)[C@H](CCc1ccccc1)N[C@H]1CCc2ccccc2N(CC(=O)O)C1=O` [Benazepril HCl]: the relative cell viability was determined as 1.1 ± 0.14. To `CC(C)[C@H]1C(=O)N[C@@H](CCCNC(=N)N)C(=O)NCC(=O)N[C@@H](CC(=O)O)C(=O)N[C@H](Cc2ccccc2)C(=O)N1C` [Cilengitide] belongs 0.929 ± 0.065. With `O=C(c1cccc(Cl)c1F)N1CCN(Cc2cccc(Nc3nccs3)n2)CC1`, the relative cell viability came to 1.121 ± 0.0073. To `COc1cc(OC)c2c(=O)[nH]c(-c3cc(C)c(OCCO)c(C)c3)nc2c1` belongs 0.819 ± 0.058; to `CC(C)(C)NC[C@H](O)COc1nsnc1N1CCOCC1` [Timolol Maleate], 1.19 ± 0.037; to `O=C(Nc1cccc2c(=O)cc(-c3nnn[nH]3)oc12)c1ccc(OCCCCc2ccccc2)cc1` [Pranlukast], 0.94 ± 0.14. Turning to `Nc1nc(Cl)nc2c1ncn2[C@@H]1O[C@H](CO)[C@@H](O)[C@@H]1F` [Clofarabine], the relative cell viability was 0.823 ± 0.0099. Consider `CN1CC[C@H](c2c(O)cc(O)c3c(=O)cc(-c4ccccc4Cl)oc23)[C@H](O)C1` [Flavopiridol (Alvocidib)], for which the relative cell viability was determined as 0.444 ± 0.28.

On to `CN1CC[C@H](c2c(O)cc(O)c3c(=O)cc(-c4ccccc4Cl)oc23)[C@H](O)C1` [Flavopiridol HCl], for which the relative cell viability is 0.414 ± 0.25. For the compound `COc1ccc(-c2cc(=O)c3c(O)cc(O)cc3o2)cc1O` [Diosmetin], the relative cell viability turned out to be 0.923 ± 0.036. Next, `CC(C)NCC(O)COc1ccc(COCCOC(C)C)cc1` (configuration not stated) [Bisoprolol fumarate]: 1.13 ± 0.065; `O=C1CN2Cc3c(ccc(Cl)c3Cl)N=C2N1` [Anagrelide HCl]: 1.03 ± 0.11; `Nc1nc(F)nc2c1ncn2[C@@H]1O[C@H](CO)[C@@H](O)[C@@H]1O` [Fludarabine]: 0.478 ± 0.0057. In the case of `CC[C@H]1OC(=O)[C@H](C)[C@@H](O[C@H]2C[C@@](C)(OC)[C@@H](O)[C@H](C)O2)[C@H](C)[C@@H](O[C@@H]2O[C@H](C)C[C@H](N(C)C)[C@H]2O)[C@](C)(O)C[C@@H](C)/C(=N\OCOCCOC)[C@H](C)[C@@H](O)[C@]1(C)O` [Roxithromycin], the relative cell viability was found to be 1.14 ± 0.086. As to `CC(=O)N1c2ccc(-c3ccc(C(=O)O)cc3)cc2[C@H](Nc2ccc(Cl)cc2)C[C@@H]1C`, the relative cell viability came out at 0.508 ± 0.061. Turning to `O=C(NCCS(=O)(=O)c1ccc(C(F)(F)F)cn1)c1ccc(Cl)cc1`, the relative cell viability was determined as 1.24 ± 0.019. Consider `CC(C)CC(=O)Nc1n[nH]c2c1CN(C(=O)C1CCN(C)CC1)C2(C)C`, for which the relative cell viability was found to be 0.844 ± 0.036.

For the compound `C=C1CC[C@H](O)C/C1=C/C=C1\CCC[C@]2(C)[C@@H]([C@H](C)CCCC(C)(C)O)CC[C@@H]12` [Calcifediol], the relative cell viability was 0.925 ± 0.055. With `NC(CO)(CO)CO` [Trometamol], the relative cell viability turned out to be 1.157 ± 0.011. As to `O=c1ncccn1[C@@H]1O[C@H](CO)[C@@H](O)[C@H]1O` [Zebularine], the relative cell viability worked out at 1.17 ± 0.075. Regarding `O=C(CCCCCCNC(=O)c1cnc(N(c2ccccc2)c2ccccc2)nc1)NO` [Rocilinostat (ACY-1215)], the relative cell viability stood at 0.8907 ± 0.0072. As to `CC(C)n1nc(-c2cc3cc(O)ccc3[nH]2)c2c(N)ncnc21`, the relative cell viability was 0.742 ± 0.033. To `NC(=O)N1c2ccccc2C=Cc2ccccc21` [Carbamazepine] belongs 1.15 ± 0.031; to `C=CC(=O)N1CCN(C(=O)CNc2cc(I)c(Cl)cc2O)CC1` [K-Ras(G12C) inhibitor 12], 1.06 ± 0.13; to `Clc1ccc(C(Cn2ccnc2)OCc2c(Cl)cccc2Cl)c(Cl)c1` (configuration not stated) [Isoconazole nitrate], 0.829 ± 0.086. For `O=c1cc(-c2ccc(O)cc2)oc2cc(O)cc(O)c12` [Apigenin], the relative cell viability amounted to 1.02 ± 0.037. Consider `C[C@@H](N)[C@H]1CC[C@H](C(=O)Nc2ccncc2)CC1`, for which the relative cell viability came to 1.22 ± 0.072. As for `COc1ccc2cc(CCC(C)=O)ccc2c1` [Nabumetone], the relative cell viability was determined as 1.12 ± 0.14. As for `C[C@H]1[C@@H](O)O[C@@H]2O[C@@]3(C)CC[C@H]4[C@H](C)CC[C@@H]1[C@@]24OO3` [Dihydroartemisinin (DHA)], the relative cell viability is 0.8267 ± 0.0056.

Regarding `COc1ccc(-c2oc3c(CC=C(C)C)c(O[C@@H]4O[C@H](CO)[C@@H](O)[C@H](O)[C@H]4O)cc(O)c3c(=O)c2O[C@@H]2O[C@@H](C)[C@H](O)[C@@H](O)[C@H]2O)cc1` [Icariin], the relative cell viability was 1.224 ± 0.0063.
